In the supplement of paper PMC4967469:
pIC50: −log10 of the molar value. Lines with a small IC50 respond at low doses; a fit beyond the top or the lowest dose is shown as a bound at that dose. AUC is the area under the same curve over the 256-fold range up to the top dose, as a fraction; the more sensitive the line, the further below 1. The top dose, if marked as inferred, comes from the curve model; the source does not state it.

What was measured:
Experiment in all cases: Viability of human cancer cell lines after 72 h of drug (GDSC screen)
SGC0946 = compound: CC(C)N(CCCNC(=O)Nc1ccc(C(C)(C)C)cc1)C[C@H]1O[C@@H](n2cc(Br)c3c(N)ncnc32)[C@H](O)[C@@H]1O [SGC0946]; details: top dose 0.5 µM; top dose inferred
Procedure: (§1)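 Human cancer cell lines in 384-well plates, medium with 10% serum, drug for 72 h over a 256-fold dose range (nine 2-fold or five 4-fold steps up to the top dose). Adherent lines were fixed and stained with the nucleic acid dye Syto60, suspension lines read with resazurin; signal relative to control wells, capped at 0 and 100%. One two-parameter sigmoid per drug and line, fitted in a mixed model over all curves with the slope shared within a line.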

Bryostatin 1 = compound: CCC/C=C/C=C/C(=O)O[C@H]1/C(=C/C(=O)OC)C[C@H]2C[C@H]([C@@H](C)O)OC(=O)C[C@H](O)C[C@@H]3C[C@H](OC(C)=O)C(C)(C)[C@](O)(C[C@@H]4C/C(=C/C(=O)OC)C[C@H](/C=C/C(C)(C)[C@]1(O)O2)O4)O3 [Bryostatin 1]; details: top dose 0.008 µM; top dose inferred
Procedure: as §1

GW-2580 = compound: COc1ccc(COc2ccc(Cc3cnc(N)nc3N)cc2OC)cc1 [GW-2580]; details: top dose 20 µM; top dose inferred
Procedure: as §1

Lenalidomide = compound: Nc1cccc2c1CN(C1CCC(=O)NC1=O)C2=O [Lenalidomide]; details: top dose 5 µM; top dose inferred
Procedure: as §1

| Cell Line | AUC (SGC0946) | pIC50 (SGC0946) | AUC (Bryostatin 1) | pIC50 (Bryostatin 1) | AUC (GW-2580) | pIC50 (GW-2580) | AUC (Lenalidomide) | pIC50 (Lenalidomide) |
| --- | --- | --- | --- | --- | --- | --- | --- | --- |
| MDA-MB-453 (breast, adherent) | 0.984 | < 6.30 | 0.984 | < 8.10 | 0.952 | < 4.70 | 0.986 | < 5.30 |
| NCI-H1651 (lung adenocarcinoma, adherent) | 0.97 | < 6.30 | 0.984 | < 8.10 | 0.966 | < 4.70 | 0.987 | < 5.30 |
| BxPC-3 (pancreas, adherent) | 0.969 | < 6.30 | 0.926 | < 8.10 | 0.975 | < 4.70 | 0.984 | < 5.30 |
| KYSE-220 (oesophagus, adherent) | 0.984 | < 6.30 | 0.979 | < 8.10 | 0.984 | < 4.70 | 0.976 | < 5.30 |
| A431 (skin, adherent) | 0.987 | < 6.30 | 0.969 | < 8.10 | 0.974 | < 4.70 | 0.984 | < 5.30 |
| MIA-PaCa-2 (pancreas, adherent) | 0.948 | < 6.30 | 0.972 | < 8.10 | 0.982 | < 4.70 | 0.955 | < 5.30 |
| NMC-G1 (glioma, adherent) | 0.979 | < 6.30 | 0.926 | < 8.10 | 0.976 | < 4.70 | 0.973 | < 5.30 |
| NCI-H322M (lung adenocarcinoma, suspension) | 0.98 | < 6.30 | 0.982 | < 8.10 | 0.987 | < 4.70 | 0.972 | < 5.30 |
| COLO-783 (melanoma, adherent) | 0.974 | < 6.30 | 0.989 | < 8.10 | 0.99 | < 4.70 | 0.984 | < 5.30 |
| NCI-H2081 (small cell lung carcinoma, suspension) | 0.988 | < 6.30 | 0.989 | < 8.10 | 0.975 | < 4.70 | 0.973 | < 5.30 |
| D-392MG (glioma, adherent) | 0.975 | < 6.30 | 0.977 | < 8.10 | 0.975 | < 4.70 | 0.964 | < 5.30 |
| NCI-H28 (mesothelioma, adherent) | 0.978 | < 6.30 | 0.975 | < 8.10 | 0.981 | < 4.70 | 0.976 | < 5.30 |
| PANC-08-13 (pancreas, adherent) | 0.981 | < 6.30 | 0.972 | < 8.10 | 0.971 | < 4.70 | 0.904 | < 5.30 |
| QIMR-WIL (acute myeloid leukaemia, suspension) | 0.985 | < 6.30 | 0.987 | < 8.10 | 0.978 | < 4.70 | 0.985 | < 5.30 |
| SK-LMS-1 (soft tissue, adherent) | 0.986 | < 6.30 | 0.982 | < 8.10 | 0.987 | < 4.70 | 0.974 | < 5.30 |
| SAS (head and neck, adherent) | 0.978 | < 6.30 | 0.979 | < 8.10 | 0.979 | < 4.70 | 0.964 | < 5.30 |
| HT-115 (large intestine, adherent) | 0.991 | < 6.30 | 0.991 | < 8.10 | 0.982 | < 4.70 | 0.991 | < 5.30 |
| COLO-678 (large intestine, semi-adherent) | 0.983 | < 6.30 | 0.98 | < 8.10 | 0.984 | < 4.70 | 0.983 | < 5.30 |
| SKG-IIIa (cervix, adherent) | 0.981 | < 6.30 | 0.908 | < 8.10 | 0.98 | < 4.70 | 0.983 | < 5.30 |
| NCI-SNU-16 (stomach, suspension) | 0.985 | < 6.30 | 0.991 | < 8.10 | 0.986 | < 4.70 | 0.985 | < 5.30 |
| G-401 (kidney, adherent) | 0.982 | < 6.30 | 0.933 | < 8.10 | 0.979 | < 4.70 | 0.984 | < 5.30 |
| NU-DUL-1 (B-cell lymphoma, suspension) | 0.992 | < 6.30 | 0.814 | 8.48 | 0.983 | < 4.70 | 0.993 | < 5.30 |
| ATN-1 (T-cell lymphoblastic leukaemia, suspension) | 0.985 | < 6.30 | 0.973 | < 8.10 | 0.985 | < 4.70 | 0.927 | < 5.30 |
| COLO-679 (melanoma, adherent) | 0.983 | < 6.30 | 0.983 | < 8.10 | 0.982 | < 4.70 | 0.984 | < 5.30 |

| Cell Line | AUC (SGC0946) | pIC50 (SGC0946) | AUC (Bryostatin 1) | pIC50 (Bryostatin 1) | AUC (GW-2580) | pIC50 (GW-2580) | AUC (Lenalidomide) | pIC50 (Lenalidomide) |
| --- | --- | --- | --- | --- | --- | --- | --- | --- |
| H2795 (mesothelioma, adherent) | 0.983 | < 6.30 | 0.88 | < 8.10 | 0.986 | < 4.70 | 0.947 | < 5.30 |
| CAS-1 (glioma, adherent) | 0.978 | < 6.30 | 0.889 | < 8.10 | 0.959 | < 4.70 | 0.981 | < 5.30 |
| BFTC-905 (bladder, adherent) | 0.976 | < 6.30 | 0.99 | < 8.10 | 0.986 | < 4.70 | 0.986 | < 5.30 |
| MDST8 (large intestine, adherent) | 0.929 | < 6.30 | 0.983 | < 8.10 | 0.984 | < 4.70 | 0.981 | < 5.30 |
| HCC38 (breast, adherent) | 0.984 | < 6.30 | 0.98 | < 8.10 | 0.984 | < 4.70 | 0.986 | < 5.30 |
| Saos-2 (osteosarcoma, adherent) | 0.978 | < 6.30 | 0.943 | < 8.10 | 0.979 | < 4.70 | 0.981 | < 5.30 |
| HOS (osteosarcoma, adherent) | 0.984 | < 6.30 | 0.95 | < 8.10 | 0.992 | < 4.70 | 0.977 | < 5.30 |
| NCI-H1048 (small cell lung carcinoma, adherent) | 0.989 | < 6.30 | 0.99 | < 8.10 | 0.978 | < 4.70 | 0.989 | < 5.30 |
| NCI-SNU-1 (stomach, suspension) | 0.984 | < 6.30 | 0.986 | < 8.10 | 0.98 | < 4.70 | 0.986 | < 5.30 |
| TT (thyroid, adherent) | 0.98 | < 6.30 | 0.878 | < 8.10 | 0.977 | < 4.70 | 0.967 | < 5.30 |
| KP-2 (pancreas, adherent) | 0.985 | < 6.30 | 0.981 | < 8.10 | 0.979 | < 4.70 | 0.986 | < 5.30 |
| SK-MEL-24 (melanoma, adherent) | 0.981 | < 6.30 | 0.977 | < 8.10 | 0.982 | < 4.70 | 0.98 | < 5.30 |
| HT-3 (cervix, adherent) | 0.986 | < 6.30 | 0.987 | < 8.10 | 0.987 | < 4.70 | 0.987 | < 5.30 |
| ESS-1 (endometrium, adherent) | 0.987 | < 6.30 | 0.978 | < 8.10 | 0.989 | < 4.70 | 0.989 | < 5.30 |
| SW48 (large intestine, adherent) | 0.984 | < 6.30 | 0.976 | < 8.10 | 0.975 | < 4.70 | 0.985 | < 5.30 |
| JIMT-1 (breast, adherent) | 0.983 | < 6.30 | 0.945 | < 8.10 | 0.98 | < 4.70 | 0.974 | < 5.30 |
| OV-90 (ovary, adherent) | 0.971 | < 6.30 | 0.915 | < 8.10 | 0.971 | < 4.70 | 0.976 | < 5.30 |
| NKM-1 (acute myeloid leukaemia, suspension) | 0.943 | < 6.30 | 0.984 | < 8.10 | 0.899 | < 4.70 | 0.94 | < 5.30 |
| Hep 3B2_1-7 (liver, adherent) | 0.983 | < 6.30 | 0.966 | < 8.10 | 0.976 | < 4.70 | 0.973 | < 5.30 |
| KARPAS-620 (haematopoietic neoplasm, suspension) | 0.986 | < 6.30 | 0.981 | < 8.10 | 0.991 | < 4.70 | 0.99 | < 5.30 |
| IST-MEL1 (melanoma, adherent) | 0.978 | < 6.30 | 0.977 | < 8.10 | 0.979 | < 4.70 | 0.97 | < 5.30 |
| NCI-H2291 (lung adenocarcinoma, adherent) | 0.887 | < 6.30 | 0.983 | < 8.10 | 0.984 | < 4.70 | 0.982 | < 5.30 |
| COLO-205 (large intestine, suspension) | 0.986 | < 6.30 | 0.968 | < 8.10 | 0.984 | < 4.70 | 0.975 | < 5.30 |
| SW1990 (pancreas, adherent) | 0.983 | < 6.30 | 0.977 | < 8.10 | 0.98 | < 4.70 | 0.925 | < 5.30 |
